Measurements taken from PubChem BioAssay AID1347073 (National Center for Advancing Translational Sciences (NCATS), 2019).
The campaign covered roughly 45,000 compounds. About 200 (0.44%) were called active. Another 7% or so got no clear call; they are omitted. Calls come from the whole dose curve; as a rule, active = well fitted activation curve with a large enough effect; inconclusive = small, poorly fitted or top-dose-only effect; inactive = no such curve, though single readings can be large or run the other way. This is one part of the list.

Assay: qHTS of TDP-43 Inhibitors: NCGC Sytravon Library Screen; note: 0% is about no effect; nearly all actives have a fitted effect of over 55% in size
Conditions: yeast TDP-43 toxicity rescue, BacTiter-Glo growth, 24 h; at 46.1 µM (top of the series)
Outline: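 TDP-43-expressing yeast, pregrown in raffinose, seeded at OD600 0.02 in galactose medium with compound for 24 hr at 30 deg C. Growth read by BacTiter-Glo luminescence, so rescue of toxicity appears as activation.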
For `Cn1c(O)c(C=Nc2ccccc2-c2ccccc2)c(=O)n(C)c1=O`, the growth rescue (activation) was inactive: -0.786%.
For `COc1cccc(-n2c(=S)[nH]c3ccccc3c2=O)c1`, the growth rescue (activation) was inactive: -16.4%.
In the case of `COC(=O)C(O)(c1ccc(N(C)C)cc1)C(F)(F)F` (stereo unspecified), the growth rescue (activation) is reported as inactive: 0.948%.
With `Cc1ccc(OP(=O)(O)Oc2ccc(C)cc2)cc1` the growth rescue (activation) was inactive: 13.4%.
In the case of `Cn1cccc1/C=C1/C(=O)NC(=O)N(Cc2ccc(F)cc2)C1=O`, the growth rescue (activation) is reported as inactive: -9.83%.
With `CC12CCC(=O)C=C1CCC1C2CCC2(C)C1CCC2(O)CC#N` (stereo unspecified) the growth rescue (activation) was inactive: -6.75%.
In the case of `N/C(=N\[N+](=O)[O-])N1CCN(C(=O)c2ccccc2)CC1`, the growth rescue (activation) is reported as inactive: -8.5%.
With `Cn1c(O)c(C=Nc2ccccc2Sc2ccccc2)c(=O)n(C)c1=O` the growth rescue (activation) was inactive: 7.47%.
For `Cc1c(C(=O)N2CCC3(CC2)OCCO3)sc2ncnc(N3CCc4ccccc4C3)c12`, the growth rescue (activation) was inactive: 23%.
For `O=C(CN1CCOCC1)c1ccc(Br)cc1`, the growth rescue (activation) was inactive: -6.28%.
For `CCCCCn1c(NC(=O)c2ccco2)c(C(=O)OCC)c2nc3ccccc3nc21`, the growth rescue (activation) was inactive: 6.77%.
For `COc1ccccc1CCNC1CCC(C)CC1` (stereo unspecified), the growth rescue (activation) was inactive: 1.47%.
With `Cc1ccc(Cn2cc(C=O)c3ccccc32)cc1` the growth rescue (activation) was inactive: 22.8%.
In the case of `CC(=O)N1CN2CN(C(C)=O)CC(C(=O)c3ccc([N+](=O)[O-])cc3)(C2)C1`, the growth rescue (activation) is reported as inactive: 10.9%.
For `CC(=O)Nc1ccc(C2CN(C)CC2C(=O)c2ccc(Cl)cc2)cc1` (stereo unspecified), the growth rescue (activation) was inactive: 17.4%.
With `COC(=O)c1ccc(NC(=O)CSc2nc3ccc(N4C(=O)C5C6C=CC(C6)C5C4=O)cc3s2)cc1` (stereo unspecified) the growth rescue (activation) was inactive: 0.367%.
For `CC(NCc1ccccc1C(F)(F)F)C(O)c1ccccc1` (stereo unspecified), the growth rescue (activation) was inactive: 2.11%.
For `Cc1ccc2c(c1)C1CN(C)CCC1N2C(=O)Cn1cnc2c1c(=O)n(C)c(=O)n2C` (stereo unspecified), the growth rescue (activation) was inactive: 3.99%.
In the case of `CC(C)[C@H]1CC2C3CC=C4C[C@@H](O)CC[C@]4(C)C3CC[C@]2(C)[C@H]1O` (stereo partly specified), the growth rescue (activation) is reported as inactive: 2.18%.
With `Cc1ccc(CNC(=O)CCCn2c(=O)c3sccc3n(CC(=O)Nc3c(C)cccc3C)c2=O)cc1` the growth rescue (activation) was inactive: 4.24%.
With `CCOP(=O)(OCC)C(O)c1ccc(OC)cc1` (stereo unspecified) the growth rescue (activation) was inactive: 5.22%.
In the case of `CCOC(=O)c1c(C)n(Cc2ccccc2)c2ccc(OCC(O)CNC(C)(C)C)cc12` (stereo unspecified), the growth rescue (activation) is reported as inactive: 10.3%.
With `C=CCn1c(O)c(C(C)=Nc2ccc(C(=O)O)cc2)c(=O)[nH]c1=O` the growth rescue (activation) was inactive: -4.97%.
With `O=c1[nH]c(=O)n(CC2CCCO2)c(O)c1/C=C1\C=Nc2ccccc21` (stereo unspecified) the growth rescue (activation) was inactive: 8.26%.
With `CNCC(C)c1ccccc1` (stereo unspecified) the growth rescue (activation) was inactive: -0.693%.
With `C=CCn1cc(C=C2C(=O)NC(=O)NC2=O)c2ccccc21` the growth rescue (activation) was inactive: -0.179%.
In the case of `O=[N+]([O-])c1cc(F)c(N2CCCC2)cc1Br`, the growth rescue (activation) is reported as inactive: 14.5%.
For `CCN(CC)c1ccc(/C=C2\C(=O)NC(=S)N(C)C2=O)o1`, the growth rescue (activation) was inactive: 0.559%.
For `CN1CCc2nc(SCc3ccccc3Br)c(C#N)cc2C1`, the growth rescue (activation) was inactive: -6.51%.
In the case of `C[C@]12CCC3C(CCC4=CC(O)CC[C@@]43/C=N/O)C1(O)CCC2C1=CC(=O)OC1` (stereo partly specified), the growth rescue (activation) is reported as inactive: -13.8%.
In the case of `Cc1[nH]c2ccc(OC(F)(F)F)cc2c1CCNCc1cccc([N+](=O)[O-])c1`, the growth rescue (activation) is reported as inactive: 7.49%.
For `CC12CC[C@H]3[C@@H](CCC4(O)C[C@H](O)CCC34/C=N/NC(=O)c3ccccc3[N+](=O)[O-])C1(O)CCC2C1=CC(=O)OC1` (stereo partly specified), the growth rescue (activation) was inactive: 10.2%.
With `NC(Cc1ccc(Cl)cc1)c1csc(Nc2cnccn2)n1` (stereo unspecified) the growth rescue (activation) was inactive: 5.48%.
For `CC/C(=N\NC(=O)c1ccccc1)c1c(O)n(Cc2ccccc2)c(=O)[nH]c1=O`, the growth rescue (activation) was inactive: 4.14%.
For `C=CCn1c(O)c(C(C)=NCCC(c2ccccc2)c2ccccc2)c(=O)[nH]c1=O`, the growth rescue (activation) was inactive: 2.43%.
In the case of `O=[N+]([O-])c1ccc(N2CCNCC2)cc1N1CCCCC1`, the growth rescue (activation) is reported as inactive: -17.4%.
With `Cc1ccsc1C(=O)C1CCCN(CCO)C1` (stereo unspecified) the growth rescue (activation) was inactive: -0.685%.
In the case of `CCOC(=O)Cn1cc(C=C2C(=O)N(C)C(=O)N(C)C2=O)c2ccccc21`, the growth rescue (activation) is reported as inactive: 17.8%.
For `O=C1NC(=O)N(c2ccc3c(c2)OCO3)C(=O)/C1=C/c1ccc(N2CCCCC2)o1`, the growth rescue (activation) was inactive: 3.66%.
With `CC(=O)OC1N=C(c2ccccc2)c2cc(Br)ccc2N(C)C1=O` (stereo unspecified) the growth rescue (activation) was inactive: 10.5%.
With `COc1cccc(NC(=O)Cn2cc(C(=O)c3ccccc3)c3ccccc32)c1` the growth rescue (activation) was inactive: 4.03%.
In the case of `O=Cc1cn(Cc2ccccc2F)c2ccccc12`, the growth rescue (activation) is reported as inactive: 6.2%.
In the case of `Fc1ccccc1CNCCc1c[nH]c2ccccc12`, the growth rescue (activation) is reported as inactive: 11.4%.
With `O=c1[nH]c(O)c(Cc2ccc3c(c2)OCO3)c(=O)[nH]1` the growth rescue (activation) was inactive: 9.11%.
In the case of `O=C1C2CCCN2C(c2cccnc2)N1c1nccs1` (stereo unspecified), the growth rescue (activation) is reported as inactive: 6.9%.
With `CCOc1ccc(NC(=O)Cn2cc(C(=O)c3ccccc3)c3ccccc32)cc1` the growth rescue (activation) was inactive: 7.24%.
